According to PubChem BioAssay AID1794842 (National Center for Advancing Translational Sciences (NCATS), 2023):
The campaign covered roughly 2,800 compounds. Fewer than 10 were called active. Calls come from the whole dose curve; as a rule, active = well fitted curve in the direction sought with a large enough effect; inconclusive = small, poorly fitted or top-dose-only effect, or another doubt; inactive = no such curve, though single readings can be large or run the other way. Some of the results follow.

Molecular target: Metallo-beta-lactamase type 2 (Klebsiella pneumoniae) (UniProt C7C422)
Experiment: qHTS to identify inhibitors of the New Delhi Metallo-beta-lactamase (NDM): Meropenem screen against the machine-based learning selections. Note: % of control where 0% means no effect.
Details: Purified NDM-1, meropenem hydrolysis, absorbance 300 nm; at 38.4 µM (top of the series) unless noted
Outline: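 Hydrolysis by 2 nM NDM-1 was followed by absorbance after >30 min compound preincubation in HEPES pH 7.0 buffer with 1 uM Zn2SO4. For nitrocefin (16.7 uM, 15 min, 485 nm) and meropenem (50 uM, 30 min, 300 nm), each substrate ran on separate plates.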

UniProt C7C422, sequence (C7C422 whole entry, looked up): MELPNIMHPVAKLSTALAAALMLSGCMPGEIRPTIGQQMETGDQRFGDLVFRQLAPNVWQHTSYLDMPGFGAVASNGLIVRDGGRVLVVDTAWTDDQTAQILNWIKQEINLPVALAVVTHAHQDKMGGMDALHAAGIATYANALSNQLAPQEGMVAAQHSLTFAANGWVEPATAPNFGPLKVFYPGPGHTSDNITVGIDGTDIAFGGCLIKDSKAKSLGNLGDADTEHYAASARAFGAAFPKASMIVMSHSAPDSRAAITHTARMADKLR

Activity change, negative = inhibition, inactive:
COc1c(F)cc(CNCC2(O)CCCNC2)cc1F (stereo not given) 21.5%, CCN(CC)C(=O)[C@@H]1CCC[C@@H](NC(=O)c2ccc(C#N)cc2)CN(C)C(=O)C1 0.646% [at 57.5 µM], O=C1CCCCCN1CC(=O)N1CCCC(OCc2ccccc2)C1 (stereo not given) 1.7%, OC(c1ccc2c(c1)CCO2)c1nc(Nc2cccc(C(F)(F)F)c2)n[nH]1 (stereo not given) 1.18% [at 57.5 µM], Cc1cc(C)n2nc(CC(=O)N[C@H](c3ccccn3)C3CC(O)C3)nc2n1 (stereo not given in full) 61.9%, O=C(N[C@H](Cc1ccccn1)C1CC(O)C1)c1n[nH]c2c1CCCC2 (stereo not given in full) 34.8%, COc1ccc(N2C(=O)[C@@H]3[C@@H](CCN3C(=O)C(C)(C)C)N(Cc3ccccc3)C2=O)cc1 -0.403% [at 57.5 µM], COc1ccccc1C(O)c1nc(Nc2ccc(Cl)cc2F)n[nH]1 (stereo not given) 1.38% [at 57.5 µM], CN1CCC(C2CCN(C(=O)NC3CCCC3)C2)CC1 (stereo not given) -1.47%, CCS(=O)(=O)N1CCC(Cc2nc(-c3cccnc3)n[nH]2)C1 (stereo not given) 0.912%, C=CCC1(CO)CCCN(CCS(=O)(=O)c2ccccc2)C1 (stereo not given) -1.58%, O=C(Cc1ccccc1O)N1CCCC(CCc2c(F)cccc2F)C1 (stereo not given) 1.93%, O=C(COc1ccccc1)NC[C@H]1Cn2c(-c3ccc(Cl)cc3)cnc2CO1 7.23% [at 57.5 µM], CN(CCCc1cnn(C)c1)C(=O)C1CNCCO1 (stereo not given) 34.3%, CN(C)c1ccc(CN[C@H]2C[C@H]3C(=O)NC[C@@H](CCC(=O)N4CCC(O)CC4)N3C2)cc1 6.56%, COc1ccc(OCc2nc(C(=O)N3CCCC(C(C)(C)O)C3)co2)cc1 (stereo not given) 0.798%, Cn1cc(-c2cnc(NC(=O)c3c[nH]c4ccccc34)c3c2CCO3)cn1 6.8% [at 57.5 µM], Cc1ccccc1-c1nccn2c(C3CN(Cc4ccccc4O)C3)ncc12 4.1% [at 57.5 µM], OCC1(CC2CC2)CCCN(c2nccc(C(F)(F)F)n2)C1 (stereo not given) 1.97%, CC(=O)c1sccc1-c1cc(NCc2ccccn2)nc2[nH]ccc12 3.92%, COc1ccc(-c2noc(C(=O)NC3CCC3)c2[C@H](C)O)cc1 0.792% [at 57.5 µM], CC(C)NC(=O)N[C@H]1CCN2C(=O)c3cc(-c4ccc(F)cc4F)ccc3NC(=O)[C@H]12 -3.79% [at 57.5 µM], O=C1[C@@H]2[C@@H](CCN2C(=O)NC2CCCCC2)N(Cc2cccs2)C(=O)N1c1cccc(F)c1 -0.596%, O=C1COc2ccc(-c3ccsc3)nc2CN1 17.5% [at 76.7 µM], Cc1noc([C@@H](C)NC(=O)Cc2ccccc2)c1C(=O)O -2.43% [at 76.7 µM], C[C@H]1[C@@H]2[C@@H](O)C([C@H](C)C(=O)NCc3ccccn3)CC[C@@]2(C)CC[C@@H]1NC(=O)c1ccc(C#N)cc1 (stereo not given in full) 2.59%, COCCNS(=O)(=O)c1cc(C(=O)O)cc(-c2cccc3cccnc23)c1 4.91%, O=C(NC[C@H]1OC[C@@H](NCc2ccccc2O)[C@@H]1O)Nc1ccccc1 1.63% [at 57.5 µM], O=C1CC2CCCC(C1)N2C(=O)c1cccc(Br)c1 0.993% [at 57.5 µM], COc1ccc(-c2nc3ccncc3[nH]2)cc1 21.9% [at 76.7 µM], CN1C[C@@H](NC(=O)c2ccc(C(C)(C)C)cc2)C[C@H]1c1nc(-c2ccc3c(c2)OCO3)no1 1.12%, Cc1ccc2c(c1)nc1n2[C@@H](CNCc2nccn2C)COC1 4.93% [at 57.5 µM], O=C(N[C@H]1C[C@@H]2C(=O)N[C@H]3CCN(C(=O)c4cccs4)[C@@H]3C(=O)N2C1)C1CCCC1 1.42% [at 57.5 µM], CCc1cc(C(=O)NCc2cc3n(n2)CCCN(S(C)(=O)=O)C3)cs1 1.85%, CCN(CC)C(=O)C[C@@H]1c2nc(NC(=O)N3CCOCC3)sc2C[C@@H]2[C@](C)(CO)[C@H](O)CC[C@]21C 6.26%, CC(C)(O)CCc1cccc(C(=O)N[C@H]2CCC[C@H]2C(N)=O)c1 -0.412%, COC(=O)[C@H]1CN(C(C)=O)CCN1C(C)=O -0.0382% [at 76.7 µM], COc1ccc(C(=O)Nc2ccc(-c3noc([C@@H]4CCCN4CCCc4ccccc4)n3)cn2)cc1 12%, O=C(Cc1c[nH]c2ncc(-c3cccc(OC(F)(F)F)c3)cc12)NCc1cccnc1 5.42% [at 57.5 µM], CN(Cc1cc(-c2ccccc2)n[nH]1)c1cc(C2CC(N)C2)ncn1 (stereo not given) 47.7%, CCNc1ncc(CN2CCC(N)(C(=O)O)C2)cn1 (stereo not given) 34.4%, CCCC(c1cccs1)n1cc(-c2cncnc2)nn1 (stereo not given) -2.5%, COc1c(C)cccc1-c1nc(C2CCOC2)no1 (stereo not given) 2.81%, CC1=C[C@@H](CNC(=O)COCC(=O)O)[C@H](C(C)C)C[C@H]1Cc1nc2ccc(C)cc2[nH]1 41.1% [at 57.5 µM], COc1ccccc1-n1cc(C(=O)NC[C@@H]2C[C@H](F)CN2)cn1 23.1%, CC1=C[C@@H](CNCCN(C)C)[C@H](C(C)C)C[C@H]1Cc1nnc(C(C)(C)C)o1 -0.442% [at 57.5 µM], Cn1cccc1C(=O)C(=O)N1CCC(O)(CN2CCOCC2)C(C)(C)C1 (stereo not given) 9.53%, c1cncc(CN2CCC[C@H]2c2nc(-c3ccc(-n4ccnc4)nc3)no2)c1 10.8% [at 57.5 µM], O=C(Cc1c[nH]c2ncc(-c3ccccc3)cc12)NC1CC1 6.19% [at 76.7 µM], CC(C)CNC(=O)N1CCC(Nc2cccnc2)C1 (stereo not given) 13.4%, O=C1CCCCC(C(=O)N2CCOCC2)N1 (stereo not given) -0.459%, O=C(N1CCC2(CCCCO2)CC1)C1(c2ccccc2)CC1 0.46%, COCC(=O)N1C[C@@H]2C[C@H]1C(=O)N(Cc1ccccn1)c1ccccc1O2 0.478% [at 57.5 µM], OC(c1cccc(C(F)(F)F)c1)c1nc(Nc2ccc(F)cc2)n[nH]1 (stereo not given) 1.24% [at 57.5 µM], COc1cccc(-c2cc(C(=O)NCCNc3nc(C)cc(=O)[nH]3)[nH]n2)c1 5.51%, O=C(NC1CCCCC1)O[C@@H]1CO[C@H]2[C@@H]1OC[C@@H]2n1nnnc1-c1ccc2c(c1)OCCO2 -0.38%, O=c1cc(-c2ccncc2)oc2c(-c3cccc(O)c3)nccc12 8.96% [at 57.5 µM], COc1ccc(-c2[nH]nc3ncc(-c4ccccc4O)nc23)cc1F -1.39% [at 57.5 µM], Cc1nc(CCC(=O)N2CCC(Cc3ccc(C(=O)O)cc3)C2)n[nH]1 (stereo not given) 5.45%, CCCN(CC1CCOC1)C(=O)Nc1cccc(F)c1C (stereo not given) 0.745%, Cn1c(COc2cccc(C(F)(F)F)c2Cl)nnc1C1CC(N)C1 (stereo not given) -0.252%, Cc1ccc2c(c1)c(Cn1cnc(-c3ccccc3)c1-c1cnc[nH]1)nn2C 3.94%, CN(Cc1ccccc1)Cc1cn([C@H]2CO[C@H]3[C@@H]2OC[C@@H]3NCc2ccccc2)nn1 0.49% [at 57.5 µM], CCCC1(CO)CCCN(CC(=O)NC(C)(C)CC)C1 (stereo not given) 1.66%, COc1ccc(CN2CC3(CCN(C(=O)Cc4c[nH]c5ccccc45)CC3)C2=O)cc1 -1.03%, O=C(O)CN1CCC[C@]2(C(=O)O)CN(Cc3cccc(O)c3)CC[C@@H]12 67.1%, C=CCCC(CN1CCCOCC1)Oc1ccc(-c2ccccc2)nn1 (stereo not given) -1.94%, Cc1nc(C)c(C(=O)NCC(=O)N2CCCCCNC(=O)CC2c2ccccc2)s1 (stereo not given) 0.419%, Cc1noc2c(Nc3ccc(C(N)=O)cc3)cc(-c3ccsc3)nc12 6.78% [at 57.5 µM], COc1ccc(NC2CCCN(C(=O)c3ccc(S(N)(=O)=O)cc3)C2)cc1 (stereo not given) -0.314%, COc1ccc(CN[C@H]2[C@H](O)[C@@H](N(C)CCc3ccccn3)[C@@H]3OC[C@H]2O3)cc1 -0.0233% [at 57.5 µM], CN(Cc1ccc(F)cc1)c1ccc2ncc(Nc3cccc(N[S+](C)(=O)[O-])c3)n2n1 19.9%, Cc1nc(C2CCCCN2C(=O)Cc2ccccc2)n[nH]1 (stereo not given) -0.508%, O=C1N(CCCCOc2ccccc2)c2ccccc2NC12CCNCC2 -2.04%, CN1C[C@H](NCC2CC2)CCC[C@@H](C(=O)NCc2cc(F)cc(F)c2)CC1=O 1.42% [at 57.5 µM], COc1ccc(CNC(=O)C[C@@H]2C[C@H]3O[C@H](CNC4CCNCC4)[C@@H](O)[C@H]3O2)cc1 12.7% [at 57.5 µM], CS(=O)(=O)N[C@H]1C[C@H]2C(=O)Nc3ccc(-c4ccc5c(c4)OCO5)cc3C(=O)N2C1 4.29% [at 57.5 µM], COCc1noc(CCNc2cc(C)nc(-c3ccccc3O)n2)n1 -1.23%, O=C1Nc2ccccc2O[C@H]2C[C@@H]1N(Cc1ccc3ccccc3n1)C2 15.6% [at 57.5 µM], COCc1cc(=O)n(CC(=O)Nc2cccc(F)c2)c(N2CCOCC2)n1 3.57%
